{
  "source": "the supplement of paper PMC8728848",
  "test_in_all_cases": "glycan array binding signal (z-score within array); higher = stronger binding",
  "settings_in_all_cases": "glycan notation: IUPAC condensed, linker removed; mutation: H262T",
  "key": {"[1]": {"molecular_target": "Gal(b1-3)GlcNAc(b1-3)Gal(b1-4)GlcNAc(b1-2)Man(a1-3)[Gal(b1-3)GlcNAc(b1-3)Gal(b1-4)GlcNAc(b1-2)Man(a1-6)]Man(b1-4)GlcNAc(b1-4)GlcNAc", "outline": "(§1)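 From the Consortium for Functional Glycomics database, 3228 arrays were curated, keeping only those whose protein sequence was available. Binding is given as a within-array Z-score averaged across arrays sharing a protein sequence and across linkers. Negative Z-scores can be read as non-binding.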"}, "[2]": {"molecular_target": "Gal(b1-3)GlcNAc(b1-3)Gal(b1-4)GlcNAc(b1-2)[Gal(b1-3)GlcNAc(b1-3)Gal(b1-4)GlcNAc(b1-6)]Man(a1-6)[Gal(b1-3)GlcNAc(b1-3)Gal(b1-4)GlcNAc(b1-2)Man(a1-3)]Man(b1-4)GlcNAc(b1-4)[Fuc(a1-6)]GlcNAc", "outline": "as §1"}, "[3]": {"molecular_target": "Gal(b1-3)GlcNAc(b1-3)Gal(b1-4)GlcNAc(b1-3)Gal(b1-4)GlcNAc(b1-2)[Gal(b1-3)GlcNAc(b1-3)Gal(b1-4)GlcNAc(b1-3)Gal(b1-4)GlcNAc(b1-6)]Man(a1-6)[Gal(b1-3)GlcNAc(b1-3)Gal(b1-4)GlcNAc(b1-3)Gal(b1-4)GlcNAc(b1-2)Man(a1-3)]Man(b1-4)GlcNAc(b1-4)[Fuc(a1-6)]GlcNAc", "outline": "as §1"}, "[4]": {"molecular_target": "Gal(b1-3)GlcNAc(b1-3)Gal(b1-4)GlcNAc(b1-6)[Gal(b1-3)GlcNAc(b1-3)]Gal(b1-4)Glc", "outline": "as §1"}, "[5]": {"molecular_target": "Gal(b1-3)GlcNAc(b1-3)Gal(b1-4)[Fuc(a1-3)]GlcNAc", "outline": "as §1"}, "[6]": {"molecular_target": "Gal(b1-3)GlcNAc(b1-3)Gal(b1-4)[Fuc(a1-3)]GlcNAc(b1-6)[Gal(b1-3)GlcNAc(b1-3)]Gal(b1-4)Glc", "outline": "as §1"}, "[7]": {"molecular_target": "Gal(b1-3)GlcNAc(b1-3)GalNAc", "outline": "as §1"}, "[8]": {"molecular_target": "Gal(b1-3)GlcNAc(b1-6)Gal(b1-4)GlcNAc", "outline": "as §1"}, "[9]": {"molecular_target": "Gal(b1-3)GlcNAc(b1-6)GalNAc", "outline": "as §1"}, "[10]": {"molecular_target": "Gal(b1-3)GlcNAc(b1-6)[Gal(b1-3)]GalNAc", "outline": "as §1"}, "Gal(b1-3)GlcNAc6S": {"molecular_target": "Gal(b1-3)GlcNAc6S", "outline": "as §1"}, "[11]": {"molecular_target": "Gal(b1-3)[Fuc(a1-4)]GlcNAc", "outline": "as §1"}, "[12]": {"molecular_target": "Gal(b1-3)[Fuc(a1-4)]GlcNAc(b1-2)Man", "outline": "as §1"}, "[13]": {"molecular_target": "Gal(b1-3)[Fuc(a1-4)]GlcNAc(b1-2)Man(a1-3)[Gal(b1-3)[Fuc(a1-4)]GlcNAc(b1-2)Man(a1-6)]Man(b1-4)GlcNAc(b1-4)[Fuc(a1-6)]GlcNAc", "outline": "as §1"}, "[14]": {"molecular_target": "Gal(b1-3)[Fuc(a1-4)]GlcNAc(b1-3)Gal(b1-3)[Fuc(a1-4)]GlcNAc", "outline": "as §1"}, "[15]": {"molecular_target": "Gal(b1-3)[Fuc(a1-4)]GlcNAc(b1-3)Gal(b1-4)[Fuc(a1-3)]GlcNAc", "outline": "as §1"}, "[16]": {"molecular_target": "Gal(b1-3)[Fuc(a1-4)]GlcNAc(b1-6)GalNAc", "outline": "as §1"}, "[17]": {"molecular_target": "Gal(b1-3)[GlcNAc(b1-6)]GalNAc", "outline": "as §1"}, "[18]": {"molecular_target": "Gal(b1-3)[Neu5Ac(a2-6)]GalNAc", "outline": "as §1"}, "[19]": {"molecular_target": "Gal(b1-3)[Neu5Ac(a2-6)]GlcNAc(b1-4)Gal(b1-4)Glc", "outline": "as §1"}, "[20]": {"molecular_target": "Gal(b1-3)[Neu5Ac(b2-6)]GalNAc", "outline": "as §1"}, "Gal(b1-4)Gal": {"molecular_target": "Gal(b1-4)Gal", "outline": "as §1"}, "[21]": {"molecular_target": "Gal(b1-4)GalNAc(a1-3)[Fuc(a1-2)]Gal(b1-4)GlcNAc", "outline": "as §1"}, "[22]": {"molecular_target": "Gal(b1-4)GalNAc(b1-3)[Fuc(a1-2)]Gal(b1-4)GlcNAc", "outline": "as §1"}, "Gal(b1-4)Glc": {"molecular_target": "Gal(b1-4)Glc", "outline": "as §1"}, "Gal(b1-4)Glc6S": {"molecular_target": "Gal(b1-4)Glc6S", "outline": "as §1"}, "Gal(b1-4)GlcNAc": {"molecular_target": "Gal(b1-4)GlcNAc", "outline": "as §1"}, "[23]": {"molecular_target": "Gal(b1-4)GlcNAc(a1-6)Gal(b1-4)GlcNAc", "outline": "as §1"}, "Gal(b1-4)GlcNAc(b1-2)Man": {"molecular_target": "Gal(b1-4)GlcNAc(b1-2)Man", "outline": "as §1"}, "[24]": {"molecular_target": "Gal(b1-4)GlcNAc(b1-2)Man(a1-3)Man(b1-4)GlcNAc(b1-4)GlcNAc", "outline": "as §1"}, "[25]": {"molecular_target": "Gal(b1-4)GlcNAc(b1-2)Man(a1-3)[Gal(b1-4)GlcNAc(b1-2)Man(a1-6)]Man(b1-4)GlcNAc(b1-4)GlcNAc", "outline": "as §1"}, "[26]": {"molecular_target": "Gal(b1-4)GlcNAc(b1-2)Man(a1-3)[Gal(b1-4)GlcNAc(b1-2)Man(a1-6)]Man(b1-4)GlcNAc(b1-4)[Fuc(a1-6)]GlcNAc", "outline": "as §1"}, "[27]": {"molecular_target": "Gal(b1-4)GlcNAc(b1-2)Man(a1-3)[Gal(b1-4)GlcNAc(b1-2)Man(a1-6)][Gal(b1-4)GlcNAc(b1-4)]Man(b1-4)GlcNAc(b1-4)[Fuc(a1-6)]GlcNAc", "outline": "as §1"}, "[28]": {"molecular_target": "Gal(b1-4)GlcNAc(b1-2)Man(a1-3)[Gal(b1-4)GlcNAc(b1-2)Man(a1-6)][GlcNAc(b1-4)]Man(b1-4)GlcNAc(b1-4)[Fuc(a1-6)]GlcNAc", "outline": "as §1"}, "[29]": {"molecular_target": "Gal(b1-4)GlcNAc(b1-2)Man(a1-3)[GlcNAc(b1-2)Man(a1-6)]Man(b1-4)GlcNAc(b1-4)GlcNAc", "outline": "as §1"}, "[30]": {"molecular_target": "Gal(b1-4)GlcNAc(b1-2)Man(a1-3)[GlcNAc(b1-4)][Gal(b1-4)GlcNAc(b1-2)Man(a1-6)]Man(b1-4)GlcNAc(b1-4)GlcNAc", "outline": "as §1"}, "[31]": {"molecular_target": "Gal(b1-4)GlcNAc(b1-2)Man(a1-3)[Man(a1-6)]Man(b1-4)GlcNAc(b1-4)GlcNAc", "outline": "as §1"}, "[32]": {"molecular_target": "Gal(b1-4)GlcNAc(b1-2)Man(a1-6)Man(b1-4)GlcNAc(b1-4)GlcNAc", "outline": "as §1"}},
  "note": "This is one part of the list.",
  "data": [
    {"binder": "MGL6A (Homo sapiens) (protein) MTRTYENFQYLENKVKVQGFKNGPLPLQSLLQRLCSGPCHLLLSLGLGLLLLVIICVVGFQNSKFQRDLVTLRTDFSNFTSNTVAEIQALTSQGSSLEETIASLKAEVEGFKQERQAVHSEMLLRVQQLVQDLKKLTCQVATLNNNGEEASTEGTCCPVNWVEHQDSCYWFSHSGMSWAEAEKYCQLKNAHLVVINSREEQNFVQKYLGSAYTWMGLSDPEGAWKWVDGTDYATGFQNWKPGQPDDWQGHGLGGGEDCAHFTPDGRWNDDVCQRPYHWVCEAGLGQTSQESH", "values": [
      {"measurement": "glycan array binding signal (z-score)", "setting": "[1]", "value": -0.171},
      {"measurement": "glycan array binding signal (z-score)", "setting": "[2]", "value": -0.09},
      {"measurement": "glycan array binding signal (z-score)", "setting": "[3]", "value": -0.161},
      {"measurement": "glycan array binding signal (z-score)", "setting": "[4]", "value": -0.17},
      {"measurement": "glycan array binding signal (z-score)", "setting": "[5]", "value": -0.176},
      {"measurement": "glycan array binding signal (z-score)", "setting": "[6]", "value": -0.176},
      {"measurement": "glycan array binding signal (z-score)", "setting": "[7]", "value": -0.173},
      {"measurement": "glycan array binding signal (z-score)", "setting": "[8]", "value": -0.179},
      {"measurement": "glycan array binding signal (z-score)", "setting": "[9]", "value": 6.2},
      {"measurement": "glycan array binding signal (z-score)", "setting": "[10]", "value": -0.16},
      {"measurement": "glycan array binding signal (z-score)", "setting": "Gal(b1-3)GlcNAc6S", "value": -0.176},
      {"measurement": "glycan array binding signal (z-score)", "setting": "[11]", "value": -0.176},
      {"measurement": "glycan array binding signal (z-score)", "setting": "[12]", "value": -0.169},
      {"measurement": "glycan array binding signal (z-score)", "setting": "[13]", "value": -0.166},
      {"measurement": "glycan array binding signal (z-score)", "setting": "[14]", "value": -0.176},
      {"measurement": "glycan array binding signal (z-score)", "setting": "[15]", "value": -0.173},
      {"measurement": "glycan array binding signal (z-score)", "setting": "[16]", "value": -0.086},
      {"measurement": "glycan array binding signal (z-score)", "setting": "[17]", "value": -0.158},
      {"measurement": "glycan array binding signal (z-score)", "setting": "[18]", "value": -0.176},
      {"measurement": "glycan array binding signal (z-score)", "setting": "[19]", "value": -0.177},
      {"measurement": "glycan array binding signal (z-score)", "setting": "[20]", "value": -0.178},
      {"measurement": "glycan array binding signal (z-score)", "setting": "Gal(b1-4)Gal", "value": -0.186},
      {"measurement": "glycan array binding signal (z-score)", "setting": "[21]", "value": -0.175},
      {"measurement": "glycan array binding signal (z-score)", "setting": "[22]", "value": -0.178},
      {"measurement": "glycan array binding signal (z-score)", "setting": "Gal(b1-4)Glc", "value": -0.171},
      {"measurement": "glycan array binding signal (z-score)", "setting": "Gal(b1-4)Glc6S", "value": -0.172},
      {"measurement": "glycan array binding signal (z-score)", "setting": "Gal(b1-4)GlcNAc", "value": -0.175},
      {"measurement": "glycan array binding signal (z-score)", "setting": "[23]", "value": -0.172},
      {"measurement": "glycan array binding signal (z-score)", "setting": "Gal(b1-4)GlcNAc(b1-2)Man", "value": -0.169},
      {"measurement": "glycan array binding signal (z-score)", "setting": "[24]", "value": -0.175},
      {"measurement": "glycan array binding signal (z-score)", "setting": "[25]", "value": -0.176},
      {"measurement": "glycan array binding signal (z-score)", "setting": "[26]", "value": -0.173},
      {"measurement": "glycan array binding signal (z-score)", "setting": "[27]", "value": -0.182},
      {"measurement": "glycan array binding signal (z-score)", "setting": "[28]", "value": -0.179},
      {"measurement": "glycan array binding signal (z-score)", "setting": "[29]", "value": -0.176},
      {"measurement": "glycan array binding signal (z-score)", "setting": "[30]", "value": -0.177},
      {"measurement": "glycan array binding signal (z-score)", "setting": "[31]", "value": -0.172},
      {"measurement": "glycan array binding signal (z-score)", "setting": "[32]", "value": -0.173}
    ]}
  ]
}
